Over roughly 4,100 sequences, “relative CpG methylation activity (normalised to average over all NNNCGNNN flanks)” has its median near 0.94; the highest 2% begin near 1.9. This is one part of the list.
What follows are sequences tested against DNMT3B catalytic domain (mouse) (UniProt O88509) (assay: relative CpG methylation activity (normalised to average over all NNNCGNNN flanks) (relative (1 = mean)); higher = more methylation of the central CpG). Conditions: system: in vitro, murine catalytic domain; CpG state: hemimethylated substrate pool; residues: 558-859.
Chain of UniProt O88509 (O88509 558-859): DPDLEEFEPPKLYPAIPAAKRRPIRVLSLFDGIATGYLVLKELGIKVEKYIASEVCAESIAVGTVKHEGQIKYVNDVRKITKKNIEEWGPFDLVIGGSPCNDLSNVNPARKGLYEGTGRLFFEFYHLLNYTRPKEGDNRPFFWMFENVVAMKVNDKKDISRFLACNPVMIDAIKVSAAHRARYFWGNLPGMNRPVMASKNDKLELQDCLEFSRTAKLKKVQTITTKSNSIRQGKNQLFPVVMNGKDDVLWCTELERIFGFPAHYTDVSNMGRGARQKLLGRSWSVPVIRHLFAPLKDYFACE
Summary of the method: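 Murine DNMT3A or DNMT3B catalytic domain methylated pooled dsDNA substrates, each carrying a central CpG within 10 random flanking nucleotides, with 0.8 mM S-adenosyl-L-methionine in HEPES pH 7.5 buffer at 37 °C for 60 min. Proteinase K treatment, BsaI-HFv2 digestion, hairpin ligation, bisulfite conversion and two-step PCR preceded Illumina sequencing. Relative methylation activity is the average methylation of a flanking context divided by the mean across all contexts, where a context spans three bases on each side, and every experiment was repeated twice independently.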

| Sequence | relative CpG methylation activity |
| --- | --- |
| GTGCGCCC | 0.931 |
| TCACGCCG | 1.47 |
| AGTCGGTA | 1.22 |
| ACACGTAG | 0.727 |
| CCTCGAGA | 1.39 |
| TCTCGGCA | 1.58 |
| TCACGCGA | 0.767 |
| GCACGCAC | 0.888 |
| CGGCGTTC | 0.581 |
| CTGCGGGG | 1.25 |
| CATCGCAC | 0.75 |
| GACCGTTA | 0.198 |
| GGTCGTTC | 0.711 |
| AAGCGCAT | 0.493 |
| TGTCGCAC | 0.652 |
| TCCCGCAA | 0.636 |
| AATCGGAA | 0.631 |
| TAGCGGGG | 0.665 |
| AGTCGTGT | 0.154 |
| TGGCGCTA | 0.336 |
| GCACGGAT | 0.853 |
| CCCCGAGG | 1.5 |
| ATCCGCAT | 0.618 |
| GCTCGAAC | 1.13 |
| TCCCGACC | 1.46 |

| Sequence | relative CpG methylation activity |
| --- | --- |
| GTCCGACC | 1.63 |
| TCTCGTTC | 0.902 |
| ACACGGTT | 1.27 |
| GGACGCTG | 0.649 |
| TCTCGAGC | 1.53 |
| ACACGTTT | 0.779 |
| GATCGAGG | 1.38 |
| AATCGGAT | 0.83 |
| GATCGGGT | 1.25 |
| GTCCGGGG | 1.06 |
| GTACGTTT | 1.13 |
| TCCCGTCG | 0.762 |
| AGGCGCCC | 0.477 |
| CCCCGGTC | 1.46 |
| ACACGGGC | 1.54 |
| CTTCGTCA | 0.841 |
| CGCCGAGA | 1.26 |
| CGCCGTCT | 0.601 |
| GGGCGTGT | 0.309 |
| GAGCGGCC | 1.2 |
| CTACGGTT | 1.76 |
| AGGCGGCG | 0.992 |
| TTGCGGTG | 1.47 |
| GGTCGTTA | 0.214 |
| GCGCGTGT | 0.226 |

| Sequence | relative CpG methylation activity |
| --- | --- |
| CTACGCTG | 1.24 |
| CCCCGCTA | 0.989 |
| CTTCGGCG | 1.67 |
| CTGCGCGA | 0.74 |
| TCACGAGG | 1.7 |
| TAACGTTG | 0.892 |
| CCGCGAGC | 1.39 |
| CAACGATT | 1.76 |
| AATCGACC | 1.26 |
| TGGCGAGA | 1.16 |
| GGGCGAGC | 1.61 |
| GTACGTCG | 1.34 |
| TTCCGAGG | 1.42 |
| ATCCGTAT | 0.427 |
| TCGCGTCG | 0.591 |
| CTTCGCAA | 0.702 |
| TTCCGAAT | 1.58 |
| GGTCGGTC | 1.31 |
| CTCCGACG | 1.19 |
| GACCGCTA | 0.515 |
| AGGCGCAG | 0.465 |
| GAGCGCAT | 0.379 |
| AAGCGAGG | 0.891 |
| GATCGAGA | 1.31 |
| ATACGGTC | 1.68 |

| Sequence | relative CpG methylation activity |
| --- | --- |
| AAACGGAA | 1.15 |
| ACGCGTGG | 0.317 |
| ATTCGCCC | 1.02 |
| TACCGACC | 1.06 |
| TCTCGAGT | 1.45 |
| ATACGAGA | 1.82 |
| GTCCGCAT | 0.563 |
| AAACGTCT | 1.02 |
| AGTCGCTT | 0.812 |
| CCGCGTCA | 0.831 |
| AATCGAAG | 1.23 |
| CGCCGGAC | 0.668 |
| TAGCGAGA | 1.18 |
| CGACGATT | 1.37 |
| TATCGCGG | 0.48 |
| CAACGACC | 1.51 |
| AATCGAAA | 1.44 |
| AATCGGGG | 1.17 |
| GTACGCAT | 0.898 |
| GGCCGAGT | 1.04 |
| GCGCGAGG | 1.09 |
| AGCCGGAT | 0.421 |
| TGTCGACT | 1.15 |
| GTACGACG | 1.55 |
| CCGCGAAC | 1.18 |

| Sequence | relative CpG methylation activity |
| --- | --- |
| ACGCGCCG | 0.767 |
| TGTCGCCA | 0.888 |
| TCCCGCAG | 0.521 |
| CAACGGCG | 1.75 |
| ACTCGGGG | 1.19 |
| AAGCGTAC | 0.816 |
| CCTCGCTT | 0.633 |
| TATCGCCG | 0.876 |
| ATCCGCTA | 0.919 |
| GCACGTGA | 0.543 |
| CCCCGGGG | 1.48 |
| TACCGTTT | 0.367 |
| TCACGATC | 1.73 |
| TTGCGTCT | 0.804 |
| TAGCGCAC | 0.618 |
| GGCCGCGC | 0.361 |
| CACCGCTT | 0.521 |
| CTTCGCCG | 1.13 |
| GCCCGTCC | 1 |
| AGTCGAAA | 1.28 |
| CCCCGGGT | 1.23 |
| ATCCGCTG | 0.856 |
| TAGCGTCG | 0.463 |
| ACTCGTGA | 0.374 |
| CGGCGGGT | 0.576 |

| Sequence | relative CpG methylation activity |
| --- | --- |
| TCCCGCCA | 0.914 |
| GGTCGTCA | 0.469 |
| CAGCGTGT | 0.395 |
| CCACGGAG | 0.91 |
| GACCGGCT | 1.19 |
| CTACGTTA | 1.23 |
| TCGCGTCC | 1.05 |
| TGGCGAAA | 0.75 |
| GCCCGTTG | 0.357 |
| TTACGCAA | 1.46 |
| ATTCGGAG | 0.517 |
| TATCGCGC | 0.813 |
| TAGCGGGC | 0.929 |
| AAACGGGC | 1.53 |
| ATTCGTTG | 0.433 |
| CACCGGTT | 1.03 |
| ATCCGCAA | 0.62 |
| CTCCGACC | 1.41 |
| ACCCGCTG | 0.471 |
| CCCCGGCG | 1.95 |
| GTGCGAAG | 0.855 |
| ACACGCTT | 1.18 |
| AGCCGGTC | 0.888 |
| TGCCGGAA | 0.691 |
| TGCCGGTT | 0.661 |

| Sequence | relative CpG methylation activity |
| --- | --- |
| TGGCGAGG | 0.992 |
| TGCCGGTA | 0.798 |
| GCTCGCTT | 0.684 |
| CGGCGGAC | 0.58 |
| GCCCGGCA | 1.61 |
| GCTCGCGC | 0.688 |
| GGACGCTT | 1.05 |
| CCTCGTAG | 0.54 |
| GCACGATT | 1.81 |
| TATCGCCT | 0.949 |
| TGACGGCC | 1.54 |
| ATACGTCA | 1.37 |
| TATCGAGG | 1.5 |
| GCACGCGG | 0.792 |
| TACCGTTC | 0.567 |
| TTGCGTTG | 1.03 |
| AATCGTCA | 0.562 |
| GCCCGCGC | 0.756 |
| CGGCGACG | 0.698 |
| AATCGTGA | 0.231 |
| GGCCGCAG | 0.204 |
| TACCGTGA | 0.329 |
| GGCCGAGG | 0.95 |
| TGACGGCA | 1.53 |
| CACCGGTA | 1.2 |

| Sequence | relative CpG methylation activity |
| --- | --- |
| TTACGCGA | 1.32 |
| GCTCGATT | 1.44 |
| GTACGCAC | 1.36 |
| TGTCGGCC | 1.37 |
| GCCCGAAA | 1.25 |
| CTCCGCGT | 0.717 |
| CATCGCAG | 0.454 |
| GAGCGAGG | 1.07 |
| AGACGCTG | 0.968 |
| TTACGCAT | 1.44 |
| CGACGGTA | 1.21 |
| CAACGCTA | 1.15 |
| CATCGACT | 1.57 |
| TCACGCTA | 0.988 |
| ATTCGGTA | 1.26 |
| CTTCGGAG | 1.04 |
| TCTCGGAA | 0.758 |
| ATTCGGAC | 1.08 |
| GCCCGCTC | 1.05 |
| TCACGGCT | 1.83 |
| ATCCGTCT | 1.17 |
| ATGCGCTT | 0.883 |
| CTCCGTCA | 1.09 |
| TAACGCGC | 1.25 |
| GAGCGTAA | 0.459 |

| Sequence | relative CpG methylation activity |
| --- | --- |
| CGACGAAT | 1.09 |
| TACCGTAC | 1.06 |
| CACCGGGA | 1.18 |
| GACCGTGA | 0.114 |
| TGTCGCGA | 0.194 |
| ATGCGGGC | 1.43 |
| TGTCGTTA | 0.214 |
| AGTCGCAG | 0.242 |
| CCACGTTG | 0.521 |
| TGTCGGGA | 1.1 |
| CCTCGGCG | 1.72 |
| TACCGTAG | 0.176 |
| CTGCGCGT | 0.694 |
| TGCCGTCG | 0.205 |
| CGACGGCC | 1.46 |
| TTACGTGT | 1.24 |
| GATCGCCC | 0.736 |
| CAACGGTG | 1.49 |
| CACCGCGA | 0.31 |
